Measured values reported in PubChem BioAssay AID588342 (National Center for Advancing Translational Sciences (NCATS), 2011).
Out of some 360,000 compounds screened, about 25,000 (6.9%) were called active. Inconclusive results, whose numbers are uncertain, are shown with a selection of clear calls. Calls follow the shape of the dose curve; as a rule, active = well fitted inhibition curve with a large enough effect; inconclusive = small, poorly fitted or top-dose-only effect; inactive = flat fitted curve, though single readings scatter. Potencies of inconclusive entries are doubtful fits and often do not repeat.

Molecular target: Luciferin 4-monooxygenase (Photinus pyralis) (UniProt P08659)
Assay: qHTS profiling assay for firefly luciferase inhibitor/activator using purifed enzyme and Km concentrations of substrates (counterscreen for miR-21 project); also: nearly all actives have a fitted effect of over 55% in size
Conditions: purified FLuc, luminescence inhibition; series mostly up to 57.5 µM
Procedure, shortened: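 Purified P. pyralis luciferase, 10 nM final, with Km-level 10 uM D-luciferin and 10 uM ATP in 50 mM Tris acetate pH 7.5, 10 mM Mg acetate, 0.01% Tween-20, 0.05% BSA; 6-point qHTS titration about 60 µM downward; luminescence read.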
Potency is read from the fitted curve at half-maximal effect; tags tell the direction and shape of the fitted curve.

UniProt P08659, sequence (P08659 whole entry, looked up): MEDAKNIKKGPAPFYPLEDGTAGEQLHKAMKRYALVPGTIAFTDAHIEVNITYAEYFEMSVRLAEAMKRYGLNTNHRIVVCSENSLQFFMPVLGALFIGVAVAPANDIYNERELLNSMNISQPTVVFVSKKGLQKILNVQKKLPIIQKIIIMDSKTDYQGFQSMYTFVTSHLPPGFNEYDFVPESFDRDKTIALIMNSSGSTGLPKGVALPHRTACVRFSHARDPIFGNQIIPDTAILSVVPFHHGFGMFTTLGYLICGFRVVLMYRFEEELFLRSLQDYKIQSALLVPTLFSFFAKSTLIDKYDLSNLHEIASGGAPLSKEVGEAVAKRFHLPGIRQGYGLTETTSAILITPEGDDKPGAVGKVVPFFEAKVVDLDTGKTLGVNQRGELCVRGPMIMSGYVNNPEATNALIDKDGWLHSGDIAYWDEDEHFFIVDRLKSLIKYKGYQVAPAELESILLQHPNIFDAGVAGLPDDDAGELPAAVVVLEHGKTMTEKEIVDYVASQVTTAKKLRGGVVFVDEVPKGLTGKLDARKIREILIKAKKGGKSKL

SMILES | Potency
Cc1ccc(-c2noc(-c3ccc(N4CCCC4)c([N+](=O)[O-])c3)n2)cc1 | inconclusive: 23.9 µM [inhibitor, partial curve, poor fit]
O=C(Nc1ccccc1)Nc1ccc(Oc2cccnc2)nc1 | active: 13.5 µM
Cc1ccc(C2C=C(c3ccccc3)Nc3nc(NS(C)(=O)=O)nn32)cc1 (configuration not stated) | inconclusive: 37.9 µM [inhibitor, partial curve, poor fit]
CCc1ccccc1NC(=O)c1cnc2n(c1=O)CCS2 | inactive
O=C1c2ccccc2C(=O)N1Cc1nc2ccccc2c(=O)n1CCCN1CCOCC1 | inconclusive: 21.3 µM [inhibitor, partial curve, poor fit]
O=C(c1ccc(CSc2nc3ccncc3[nH]2)cc1)N1CCN(c2cccc(Cl)c2)CC1 | inactive
CC(C)C(=O)Nc1nc2cc3c(cc2s1)OCCO3 | active: 2.39 µM
O=C1Nc2cc(C(=O)N3CCOCC3)ccc2S/C1=C\c1ccccc1 | inconclusive: 26.9 µM [inhibitor, single point]
C=CCOc1cccc(/C=C\c2nc(O)c([N+](=O)[O-])c(=O)[nH]2)c1 | inconclusive: 21.3 µM [inhibitor, single point]
CN(C)C1NC(=O)c2cc(-c3ccccc3)sc2N1 (configuration not stated) | inconclusive: 16.9 µM [inhibitor, partial curve]
CN(C(=O)CSc1nc(-c2ccccc2)cn1N)C(c1ccccc1)c1ccccc1 | inconclusive: 37.9 µM [inhibitor, partial curve, poor fit]
Cc1cccc(NC(=S)NC(=O)c2ccco2)c1C | inconclusive: 37.9 µM [inhibitor, partial curve, poor fit]
COc1ccc2c(OC)c3ccoc3nc2c1OC | inconclusive: 23.9 µM [inhibitor, single point]
O=C(NCc1ccco1)c1ccc(COc2cc(Cl)ccc2Cl)cc1 | inconclusive: 10.7 µM [inhibitor, partial curve]
CCc1ccc(-n2cnc3cc(C(=O)NCc4ccc(C)cc4)ccc32)cc1 | inconclusive: 15.1 µM [inhibitor, partial curve, poor fit]
O=C(OCC(=O)N1CCOCC1)c1ccc2[nH]c3c(c2c1)CCCC3 | inconclusive: 26.9 µM [inhibitor, single point]
CCOC(=O)Cc1csc(NC(=O)CSc2nc(N)c3c(C)c(C)sc3n2)n1 | inconclusive: 30.1 µM [inhibitor, partial curve, poor fit]
COc1cc(NC(=O)COc2cc(O)c3c(c2)OC(C)(C)CC3=O)cc(OC)c1OC | inconclusive: 37.9 µM [inhibitor, partial curve, poor fit]
Cc1oc2cc([N+](=O)[O-])c(O)c([N+](=O)[O-])c2c1C(=O)c1ccc(Cl)cc1 | inconclusive: 26.9 µM [inhibitor, single point]
O=C(CCNS(=O)(=O)c1ccccc1F)N1CCN(C/C=C/c2ccccc2)CC1 | inactive
CC(/C=N/NC(=O)Cc1cccn1C)=C\c1ccco1 | inconclusive: 26.9 µM [inhibitor, partial curve]

SMILES | Potency
COc1cccc(C(=O)Nc2cnc(NC(=O)c3ccco3)cc2C)c1 | inconclusive: 21.3 µM [inhibitor, partial curve, poor fit]
CCCc1cc(=O)[nH]c(Nc2ccc3c(c2)OCCO3)n1 | inconclusive: 37.9 µM [inhibitor, partial curve, poor fit]
COc1ccc(N2CCN(C(=O)CCn3nc(C)c(S(=O)(=O)N4CCCC4)c3C)CC2)cc1 | inactive
S=C(NNc1ccc2ccccc2c1)NC1CCCCC1 | inconclusive: 23.9 µM [inhibitor, partial curve, poor fit]
O=C(NCc1cccnc1)c1ccc(COc2ccccc2Br)cc1 | inconclusive: 15.1 µM [inhibitor, partial curve]
CC(=O)c1sc(NC(=O)C2(F)C(F)(F)C(F)(F)C(F)(F)C(F)(F)C2(F)F)nc1C | inconclusive: 23.9 µM [inhibitor, partial curve, poor fit]
COC(=O)c1cccc(-c2noc(-c3ccccc3F)n2)c1 | active: 1.69 µM
O=C(N1CCN=C1SCc1cccnc1)C12CC3CC(CC(C3)C1)C2 | inconclusive: 23.9 µM [inhibitor, single point]
COCC(=O)Nc1cc(C(=O)NCCc2ccccc2)ccc1Cl | inconclusive: 26.9 µM [inhibitor, single point]
C/C(=N\NC(=O)CCCCCNC(=O)c1ccccc1)c1ccccc1O | inconclusive: 21.3 µM [inhibitor, single point]
CC(=O)c1ccc(NC(=S)N2CCCCCC2)cc1 | inconclusive: 19 µM [inhibitor, partial curve]
CCCCN(C(=S)Nc1ccc(F)cc1)c1c(N)n(CCC)c(=O)[nH]c1=O | inactive
Cc1ccn2cc(-c3ccc(NS(=O)(=O)c4ccccc4)cc3)nc2c1 | inconclusive: 30.1 µM [inhibitor, single point]
CCCOc1ccc(-c2cc(C(=O)NCC3CCCO3)c3ccccc3n2)cc1 (configuration not stated) | active: 3.01 µM
O=C(Nc1ccn(Cc2ccccc2)n1)c1n[nH]c([N+](=O)[O-])c1Cl | active: 0.849 µM
CCNC(=O)COC(=O)c1[nH]c(C)c(C(=O)OC)c1C | inconclusive: 21.3 µM [inhibitor, partial curve, poor fit]
COc1cc(C(=O)NC2=NCCS2)ccc1OCc1c(C)noc1C | inconclusive: 37.9 µM [inhibitor, partial curve, poor fit]
O=C(N[C@@H](Cc1c[nH]c2ccccc12)C(=O)O)OCC1c2ccccc2-c2ccccc21 | inconclusive: 37.9 µM [inhibitor, single point]
CCCOc1cccc(-c2cc(C(=O)N/N=C/c3cccnc3)c3ccccc3n2)c1 | active: 7.57 µM
O=C(CCN1C(=O)C2CC=CCC2C1=O)Nc1nc(-c2ccc(F)c(F)c2)cs1 (configuration not stated) | inactive
CCN(CC)C(=O)c1c(-c2ccccc2)c(-c2ccccc2)nn(C)c1=O | inactive
